Test results taken from patent US20250163119A1, “COMPOUNDS FOR THE TREATMENT OF DIABETES OR OBESITY” (Eli Lilly and Company, priority 2023, published 2025).
Several values for one entry are separate records, joined by “and”; a condition that tells them apart may be missing. Identical values can stand only once. At least one compound was matched to its structure with a doubt left. Some entries repeat one wording, which the source may state once for all of them. *1 amine or outer side, *2 acyl side, *3 side chain or, on linkers, in order; H or OH if unused. [ ]: non-standard residue; d: D form. The star is where a group is joined. C20 diacid = O=C(O)CCCCCCCCCCCCCCCCCCC(=O)*; γGlu = O=C(O)[C@H](CCC(=O)[*:2])N[*:1]; εLys = N[C@@H](CCCCN[*:1])C(=O)[*:2]; αMeL = CC(C)C[C@](C)(N)C(=O)O; AEEA = NCCOCCOCC(=O)O; Aib = CC(C)(N)C(=O)O

Assays:
[1] = In vivo Diet Induced Obesity (DIO) model, chronic dose administration; set-up: species or system C57BL6 mice; settings: DIO mice; for Fat mass change / lean mass change: EchoMRI day 1 vs day 14; for Fat mass change / lean mass change / body weight change / fasting blood glucose: mean; for body weight change: day 1 to day 14; for fasting blood glucose: day 15 after overnight fast
[2] = Association state determination by Sedimentation Velocity Analytical UltraCentrifugation (SV-AUC); assay type: physicochemical; settings: 1 mg/mL; 5 mM phosphate, pH 7; 20° C.
[3] = 0.3 nmol/kg s.c. on days 1, 4, 7, 10, 13
[4] = 1 nmol/kg s.c. on days 1, 4, 7, 10, 13
[5] = 3 nmol/kg s.c. on days 1, 4, 7, 10, 13
[6] = 10 nmol/kg s.c. on days 1, 4, 7, 10, 13
[7] = 30 nmol/kg s.c. on days 1, 4, 7, 10, 13
[8] = 100 nmol/kg s.c. on days 1, 4, 7, 10, 13
[9] = 300 nmol/kg s.c. on days 1, 4, 7, 10, 13
[10] = combined with 10 nmol/kg of SEQ ID NO:55
[11] = dose response 0.3-300 nmol/kg s.c., top fixed to vehicle mean

{C20 diacid-εLys-AEEA-γGlu}-GSPSIVTS[αMeL]DVPT[Aib][αMeL]LQKILEQERAEKARQQATEAAEILAQV-NH2 [SEQ ID NO: 25]
Fat mass change [1, 3]: 0.05 g | lean mass change [1, 3]: 0.85 g | body weight change [1, 3]: 1.47 g | fasting blood glucose [1, 3]: 113.6 mg/dL | Fat mass change [1, 4]: -2.01 g | lean mass change [1, 4]: 0.81 g | body weight change [1, 4]: -0.62 g | fasting blood glucose [1, 4]: 105.60 mg/dL | Fat mass change [1, 5]: -1.60 g | lean mass change [1, 5]: 1.19 g | body weight change [1, 5]: 0.33 g | fasting blood glucose [1, 5]: 92.67 mg/dL | Fat mass change [1, 6]: -5.45 g | lean mass change [1, 6]: 0.57 g | body weight change [1, 6]: -5.03 g | fasting blood glucose [1, 6]: 90.33 mg/dL | Fat mass change [1, 7]: -6.71 g | lean mass change [1, 7]: 0.36 g | body weight change [1, 7]: -6.67 g | fasting blood glucose [1, 7]: 90.42 mg/dL | Fat mass change [1, 8]: -8.57 g | lean mass change [1, 8]: -0.16 g | body weight change [1, 8]: -9.07 g | fasting blood glucose [1, 8]: 86.58 mg/dL | Fat mass change [1, 9]: -9.16 g | lean mass change [1, 9]: -0.46 g | body weight change [1, 9]: -10.10 g | fasting blood glucose [1, 9]: 87.08 mg/dL | effect on body weight loss and fat mass loss induced by SEQ ID NO:55 ([1]; SEQ ID NO:25 at different dose levels combined with 10 nmol/kg of SEQ ID NO:55): enhanced both the body weight loss and fat mass loss induced by SEQ ID NO:55 | lowest dose of SEQ ID NO:25 increasing relative and absolute tibialis anterior weights vs SEQ ID NO:55 alone [1, 10]: 1 nmol/kg | lowest dose of SEQ ID NO:25 with statistically significant difference in fat mass change vs SEQ ID NO:55 alone [1, 10]: 1 nmol/kg | lowest dose of SEQ ID NO:25 with statistically significant difference in total body weight change vs SEQ ID NO:55 alone [1, 10]: 30 nmol/kg | ED 50 (nmol/kg) for body weight change [1, 11]: 11.11 nmol/kg | ED 50 (nmol/kg) for fasting blood glucose [1, 11]: 0.25 nmol/kg | ED 50 (nmol/kg) for fat mass change [1, 11]: 8.46 nmol/kg | ED 50 (nmol/kg) for lean mass change [1, 11]: Ambiguous | efficacy versus SEQ ID NO:54 for body weight change and fat mass change as measured by ED 50 ([1]; dose response experiments): improvement in efficacy over previous polypeptide SEQ ID NO:54 | Sedimentation Coefficient [2]: 0.7 S and 1.4 S
